Several values for one entry are separate records, joined by “and”; a condition that tells them apart may be missing. Identical values can stand only once. Inconclusive results, whose numbers are uncertain, are shown with a selection of clear calls. For some assays here: Where the call is inconclusive, the potency comes from a doubtful curve fit. Activity calls are given as the source filed them. Unless noted, calls come from the whole dose curve; as a rule, active = well fitted curve in the direction sought with a large enough effect in the repeat runs; inconclusive = weak or mixed curves; inactive = no such curve, though single readings can be large; an effect the other way counts as inactive or inconclusive.
What was measured:
[1] = qHTS assay for small molecules that induce genotoxicity in human embryonic kidney cells expressing luciferase-tagged ATAD5 - cell viability (AID 651634; calls by dose curve; note: potency is the fitted concentration of half-maximal effect; nearly all actives have a fitted effect of over 25% in size); conditions: HEK293T ATAD5-luc cells viability, CellTiter-Fluor, 15.5 h; series mostly up to 83.3 µM
Procedure, shortened: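 Seeding of 2,000 HEK293T ATAD5-luciferase cells per well preceded pin-tool compound transfer. Plates sat 15.5 hr at 37C under 5% CO2, then fluorescence was read after 30 min with CellTiter-Fluor.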

[2] = qHTS assay for small molecule disruptors of the mitochondrial membrane potential (AID 720635); conditions: HepG2 mitochondrial membrane potential, Mito-MPS dye ratio; note: potency is the fitted concentration of half-maximal effect
Procedure, shortened: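 HepG2 cells exposed to compound 1 hr at 37C, then Mito-MPS dye 30 min. Ratio read of aggregate (540/590 nm) versus monomer (490/535 nm) fluorescence.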

[3] = target: Glucocorticoid receptor (Homo sapiens) (UniProt P04150); test: qHTS assay to identify small molecule antagonists of the glucocorticoid receptor (GR) signaling pathway (AID 720692; active = well fitted inhibition curve with a large enough effect in the signal ratio in the repeat runs, not every such curve was filed as active; inconclusive = weak or mixed curves, or effect the other way; inactive = no such curve, though single readings can be large or run the other way; the % refers to the signal ratio; note: potency is the fitted concentration of half-maximal effect; for activity change, negative = inhibition: % is set by controls: 0 for no effect and ±100 for the full control effect); conditions: GR-bla HeLa, beta-lactamase FRET ratio, dexamethasone-stimulated, 18 h
UniProt P04150, sequence (P04150 whole entry, looked up): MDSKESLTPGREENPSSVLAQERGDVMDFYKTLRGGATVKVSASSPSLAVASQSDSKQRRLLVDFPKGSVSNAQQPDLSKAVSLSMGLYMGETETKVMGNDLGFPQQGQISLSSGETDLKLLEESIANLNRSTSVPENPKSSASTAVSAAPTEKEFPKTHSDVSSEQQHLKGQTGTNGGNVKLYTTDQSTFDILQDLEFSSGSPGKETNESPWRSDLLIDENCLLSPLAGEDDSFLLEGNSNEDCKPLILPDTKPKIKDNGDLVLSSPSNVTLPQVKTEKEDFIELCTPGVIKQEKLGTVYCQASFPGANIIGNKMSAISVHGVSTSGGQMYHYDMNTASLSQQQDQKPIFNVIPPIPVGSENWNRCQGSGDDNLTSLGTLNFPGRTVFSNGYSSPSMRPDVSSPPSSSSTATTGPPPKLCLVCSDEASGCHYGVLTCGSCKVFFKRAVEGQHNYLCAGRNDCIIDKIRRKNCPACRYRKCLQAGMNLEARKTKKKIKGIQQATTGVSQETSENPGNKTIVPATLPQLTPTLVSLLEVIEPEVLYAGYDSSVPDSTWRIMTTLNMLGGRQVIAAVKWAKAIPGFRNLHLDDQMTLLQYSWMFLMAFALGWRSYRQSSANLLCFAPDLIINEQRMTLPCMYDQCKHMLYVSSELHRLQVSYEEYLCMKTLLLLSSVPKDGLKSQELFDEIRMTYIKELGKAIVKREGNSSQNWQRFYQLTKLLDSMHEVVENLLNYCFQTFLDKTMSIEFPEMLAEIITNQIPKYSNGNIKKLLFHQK
Procedure, shortened: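 Dexamethasone (5 nM final) stimulated a stably integrated GRE-beta-lactamase reporter in HeLa cells during 18 h co-incubation with compounds; signal was quantified as fluorescence intensity of B/G FRET substrate after 2 h.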

[4] = qHTS assay for small molecule disruptors of the mitochondrial membrane potential - cell viability (AID 720634; calls by dose curve; note: nearly all actives have a fitted effect of over 20% in size; note: potency is the fitted concentration of half-maximal effect); conditions: HepG2 viability, ATP luminescence (CellTiter-Glo), 1 h; series mostly up to 83.2 µM
Procedure, shortened: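 Measuring cytotoxicity alongside mitochondrial potential, the screen quantified ATP by luminescence in HepG2 cells after 1 hr compound incubation and a 30 min room-temperature CellTiter-Glo step.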

[5] = target: Glucocorticoid receptor (Homo sapiens) (UniProt P04150); test: qHTS assay to identify small molecule agonists of the glucocorticoid receptor (GR) signaling pathway (AID 720691; active = well fitted activation curve with a large enough effect in the signal ratio in the repeat runs, not every such curve was filed as active; inconclusive = weak or mixed curves, or effect the other way; inactive = no such curve, though single readings can be large or run the other way; the % refers to the signal ratio; note: potency is the fitted concentration of half-maximal effect); conditions: GR-bla HeLa, beta-lactamase reporter ratio, 18 h; activation: at 62.4 µM (top of the series) unless noted
Procedure, shortened: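 Reporter read-out: fluorescence intensity following 2 h room-temperature LiveBLAzer B/G FRET substrate loading. Prior step: GR-bla HeLa cells held 4 h, then treated 18 h at 37 C.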

[6] = qHTS assay to test for compound auto fluorescence at 590 nm (red) in HepG2 cell free culture (AID 720684); conditions: cell-free medium autofluorescence, red 540/590 nm; at 91.3 µM (top of the series); note: % is set by controls: 0 for no effect and ±100 for the full control effect
Procedure, shortened: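 Compounds are added to culture medium (MEM, 10% FBS) lacking cells, then fluorescence is read at excitation 540 nm, emission 590 nm, with Rose Bengal sodium as the equivalency standard.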

[7] = qHTS assay to identify small molecule antagonists of the glucocorticoid receptor (GR) signaling pathway - cell viability counter screen (AID 720693); conditions: GR-bla HeLa viability, CellTiter-Glo luminescence, 18 h, with 5 nM dexamethasone present; viability change, negative = cytotoxic: at 58.5 µM (top of the series); note: % is set by controls: 0 for no effect and ±100 for the full control effect; nearly all actives have a fitted effect of over 55% in size
[8] = qHTS assay to test for compound auto fluorescence at 460 nm (blue) in HepG2 cells (AID 720687); conditions: autofluorescence 405/460 nm, 1 h; series mostly up to 91.3 µM; note: % is set by controls: 0 for no effect and ±100 for the full control effect
Procedure, shortened: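 HepG2 cells in MEM with 10% FBS, attached overnight at 37 C, were exposed to compound or DMSO for 1 hr at 37 C, 5% CO2. Blue fluorescence was read at 405/460 nm, with triamterene as reference fluorophore.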

[9] = qHTS assay to test for compound auto fluorescence at 460 nm (blue) in HEK293 cell free culture (AID 720681); conditions: cell-free medium, autofluorescence 405/460 nm (blue); series mostly up to 95.7 µM; note: potency is the fitted concentration of half-maximal effect
Procedure, shortened: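 Compounds were added to cell-free DMEM with 10% FBS and fluorescence read directly. The blue channel used 405 nm excitation and 460 nm emission, with triamterene as the reference fluorophore.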

[10] = qHTS assay to test for compound auto fluorescence at 535 nm (green) in HepG2 cells (AID 720675); conditions: green autofluorescence 485/535 nm, 1 h; series mostly up to 91.3 µM; note: % is set by controls: 0 for no effect and ±100 for the full control effect
[11] = ratio activity, negative = MMP loss: at 83.2 µM (top of the series) unless noted
[12] = activity change, negative = inhibition: at 58.5 µM (top of the series) unless noted
Tags give direction and shape of the fitted curve or compound fluorescence and quenching.

For `O=c1[nH]c2ccccc2n1CCCN1CCN(C(c2ccccc2)c2ccccc2)CC1`, the Potency [1] was inconclusive: 26.6 µM [falling, partial curve, poor fit], the Potency [2, 11] was inconclusive: 13.3 µM [activator] and the activity change, negative = inhibition [3, 12] was inconclusive: -34%.
For `COc1ccc(S(=O)(=O)N2C(=O)[C@@](c3ccccc3OC)(N3C[C@H](O)C[C@H]3C(=O)N(C)C)c3cc(Cl)ccc32)c(OC)c1`, the Potency [1] was inconclusive: 54.5 µM [falling, partial curve, poor fit], the Potency [2, 11] was “inactive” and the Potency [3, 12] was inconclusive: 43.6 µM.
For `COc1cc(C)c(Cc2cnc(N)nc2N)cc1OC`, the Potency [4] was “inactive”, the ratio activity, negative = MMP loss [2, 11] was inconclusive: -30.8% and the Potency [5] was “inactive”. For the same compound, the Potency [3, 12] was “inactive”.
With `Cn1c(=O)cc(Oc2ccc(F)cc2F)c2cnc(NCC(C)(C)O)nc21` the Potency [4] was inconclusive: 68.6 µM [cytotoxic, partial curve, poor fit], the Potency [2, 11] was inconclusive: 0.273 µM [activator, full curve, poor fit] and the Potency [5] was “inactive”.
In the case of `C[C@@H]1CN(c2c(F)c(N)c3c(=O)c(C(=O)O)cn(C4CC4)c3c2F)C[C@H](C)N1`, the Potency [5] is reported as inconclusive: 7.56 µM [rising, partial curve].
In the case of `CCOC(=O)C(C)Oc1ccc(Oc2cnc3cc(Cl)ccc3n2)cc1` (centres undefined), the activity change, negative = inhibition ([3]; at 58.5 µM (top of the series)) is reported as inconclusive: -31.5% and the activity change, negative = inhibition ([3]; at 78.9 µM (top of the series)) is reported as inconclusive: -20%.
In the case of `Cc1cn([C@H]2C[C@H](N=[N+]=[N-])[C@@H](CO)O2)c(=O)[nH]c1=O`, the ratio activity, negative = MMP loss ([2]; at 95.3 µM (top of the series)) is reported as inconclusive: -6.02%.
In the case of `O=C(O)c1ccccc1`, the ratio activity, negative = MMP loss ([2]; at 95.3 µM (top of the series)) is reported as inconclusive: 8.16%.
For `Cc1ccc(O)cc1`, the ratio activity, negative = MMP loss ([2]; at 83.2 µM (top of the series)) was inconclusive: -7.4% and the ratio activity, negative = MMP loss ([2]; at 95.3 µM (top of the series)) was inconclusive: -7.09%.
In the case of `Cn1c([N+](=O)[O-])cnc1COC(N)=O`, the ratio activity, negative = MMP loss ([2]; at 83.2 µM (top of the series)) is reported as inactive: 6.41% and the ratio activity, negative = MMP loss [2, 11] is reported as inconclusive: 8.38%.
In the case of `O=[N+]([O-])c1ccc(F)c(Cl)c1`, the ratio activity, negative = MMP loss [2, 11] is reported as inconclusive: 26.3%, the fluorescence, % of Rose Bengal [6] is reported as inactive: 0.104% and the Potency [7] is reported as “inactive”.
In the case of `O=C(O)CCCCCCCCCC(=O)O`, the ratio activity, negative = MMP loss [2, 11] is reported as inconclusive: 10.8% and the Potency [8] is reported as “inactive”.
For `Nc1cc(Cl)c(N)c(Cl)c1`, the Potency [2, 11] was inconclusive: 68.6 µM [inhibitor], the ratio activity, negative = MMP loss [2, 11] was inconclusive: -24.2% and the Potency [3, 12] was inconclusive: 61.1 µM [activator, single point].
In the case of `CC1(C)S[C@@H]2[C@H](N=CN3CCCCCC3)C(=O)N2[C@H]1C(=O)O`, the ratio activity, negative = MMP loss [2, 11] is reported as inconclusive: 1.12% and the Potency [5] is reported as active: 21.3 µM.
For `O=C(/C=C/c1ccc(O)c(O)c1)O[C@@H](C(=O)O)[C@@H](OC(=O)/C=C/c1ccc(O)c(O)c1)C(=O)O`, the Potency [2, 11] was “inactive”, the Potency [9] was inconclusive: 39.8 µM [rising, partial curve, poor fit] and the Potency [3, 12] was “inactive”.
In the case of `O=c1[nH]cnc2c1ncn2[C@H]1CC[C@@H](CO)O1`, the Potency [2, 11] is reported as inconclusive: 2.73 µM [rising, single point], the ratio activity, negative = MMP loss [2, 11] is reported as inconclusive: 6.26% [at 95.3 µM] and the Potency [3, 12] is reported as inconclusive: 23.9 µM [activator, partial curve, poor fit]. The activity change, negative = inhibition [3, 12] was inconclusive: 10.2% [at 78.9 µM].
With `COCCOC` the Potency [2, 11] was “inactive” and the Potency [8] was “inactive”.
With `NC1CCCCC1` the ratio activity, negative = MMP loss ([2]; at 83.2 µM (top of the series)) was inactive: 10.6% and inactive: -10.3%, the Potency [2, 11] was inconclusive: 43.8 µM [activator, partial curve, poor fit] and the ratio activity, negative = MMP loss [2, 11] was inconclusive: -8.25% [at 95.3 µM].
With `S=C([S-])NCCNC(=S)[S-].S=C([S-])NCCNC(=S)[S-].[Mn+2].[Zn+2]` the Potency [2, 11] was inconclusive: 1.06 µM [activator, full curve, poor fit], the Potency [9] was “inactive” and the Potency [3, 12] was inconclusive: 21.3 µM [fluorescent, partial curve].
For `CN(C)C(=O)Nc1ccccc1`, the ratio activity, negative = MMP loss [2, 11] was inconclusive: 16.9% and the Potency [10] was “inactive”.
With `O=C(O)CCCc1c[nH]c2ccccc12` the ratio activity, negative = MMP loss [2, 11] was inconclusive: -29.3%, the Potency [5] was “inactive” and the Potency [3, 12] was “inactive”.
In the case of `O=C(O)/C=C/c1ccc(O)c(O)c1`, the Potency [2, 11] is reported as inconclusive: 6.91 µM [inhibitor, single point] and the Potency [9] is reported as inconclusive: 44.7 µM [rising, partial curve, poor fit].
In the case of `CN(C)C(=O)Oc1cccc([N+](C)(C)C)c1`, the Potency [2, 11] is reported as inconclusive: 13.3 µM [activator, partial curve] and the Potency [5] is reported as “inactive”.
In the case of `C[C@@H](O)[C@H]1C(=O)N2C(C(=O)O)=C([C@H]3CCCO3)S[C@H]12`, the Potency [2, 11] is reported as “inactive”, the Potency [5] is reported as inconclusive: 4.77 µM [inhibitor, full curve] and the Potency [3, 12] is reported as inconclusive: 6.01 µM [rising, full curve, poor fit].

From PubChem BioAssay (Tox21)
